{
  "source": "PubChem BioAssay AID504832",
  "about": "(National Center for Advancing Translational Sciences (NCATS), 2011)",
  "note": "Out of some 310,000 compounds screened, about 18,000 (5.8%) were called active. The shares of active, inactive and inconclusive entries below differ from those in the screen. Calls follow the shape of the dose curve; as a rule, active = well fitted inhibition curve with a large enough effect; inconclusive = small, poorly fitted or top-dose-only effect, or another doubt; inactive = no such curve, though single readings can be large or run the other way. Potencies of inconclusive entries are left out as doubtful fits. % is scaled to controls: 0 for no effect and ±100 for the full control effect; potency is read from the fitted curve at half-maximal effect; tags tell the direction and shape of the fitted curve.",
  "data": [
    {"assay": "Primary qHTS for delayed death inhibitors of the malarial parasite plastid, 48 hour incubation", "settings": "P. falciparum luciferase growth in erythrocytes; series mostly up to 28.7 µM; activity change, negative = inhibition: at the top concentration", "summary_of_the_method": "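In quantitative HTS format, infected erythrocytes bearing luciferase-reporter parasites were treated for a single generation at 37 C. Luminescence after adding detection reagent served as the growth measure.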", "values": [
      {"smiles": "CCN1CCN(S(=O)(=O)c2ccc(S(=O)(=O)N(CC)Cc3ccccc3)cc2)CC1", "Potency": "active: 13.1 µM"},
      {"smiles": "CCSc1nnc(NC(=O)CN2C(=O)NC3(CCCC3)C2=O)s1", "activity change, negative = inhibition": "inactive: 5.81%"},
      {"smiles": "Cc1ccnc(NC(c2ccccn2)c2c(C)[nH]c3ccccc23)c1", "note": "(configuration not stated)", "activity change, negative = inhibition": "inactive: -12.2%"},
      {"smiles": "O=C(Nc1ccc(N2CCN(C(=O)c3ccco3)CC2)c(Cl)c1)c1cccs1", "Potency": "active: 5.22 µM"},
      {"smiles": "c1ccc(Cc2cc[n+](Cc3ccccn3)cc2)cc1", "Potency": "active: 4.15 µM"},
      {"smiles": "Nc1c(Cl)cc(-c2cn(CCC(=O)O)c(-c3ccc(Cl)nc3)n2)cc1Cl", "Potency": "inconclusive [inhibitor, single point]"},
      {"smiles": "CCOC(=O)N1CCN(Cc2nc3ccc([N+](=O)[O-])cc3c(=O)n2-c2cccc(OC)c2)CC1", "Potency": "inconclusive [inhibitor, partial curve, poor fit]"},
      {"smiles": "CC(C)NS(=O)(=O)c1cc(C(=O)O)ccc1Cl", "activity change, negative = inhibition": "inactive: -5.34%"},
      {"smiles": "O=C(Cn1[nH]c(=O)c2ccccc2c1=O)Nc1cccc(-c2nnc3n2CCCCC3)c1", "Potency": "inconclusive [inhibitor, partial curve]"},
      {"smiles": "Cc1ccc(C(=O)OCC(=O)N(CCc2ccccc2)Cc2ccccc2)cc1S(=O)(=O)N1CCOCC1", "Potency": "inconclusive [inhibitor, single point]"},
      {"smiles": "COc1ccc(OC)c(/C=C/C(=O)Nc2cccc(S(=O)(=O)NC3=NCCCCC3)c2)c1", "Potency": "active: 10.4 µM"},
      {"smiles": "CCOC(=O)Cc1c(C)c2c(O)cc(O)cc2oc1=O", "activity change, negative = inhibition": "inactive: -2.66%"},
      {"smiles": "CCOC(=O)C1=C(CSc2nc3c(cc2C#N)CN(C)CC3)OC(N)=C(C#N)C1c1ccccc1", "note": "(configuration not stated)", "Potency": "inconclusive [inhibitor, partial curve, poor fit]"},
      {"smiles": "CSC(=S)N/N=C/c1ccc(N(C)C)cc1", "activity change, negative = inhibition": "inactive: 53.9%"},
      {"smiles": "CC(C)(C)c1ccc(S(=O)(=O)Nc2ccc(Cc3ccncc3)cc2)cc1", "Potency": "inconclusive [inhibitor, single point]"},
      {"smiles": "COc1ccc(NC(=S)N(CCCN2CCOCC2)C(C)c2cc3cccc(OC)c3o2)cc1", "note": "(configuration not stated)", "Potency": "inconclusive [inhibitor, partial curve, poor fit]"},
      {"smiles": "CCOc1ccccc1N(CC)C(=O)c1ccc2c(=O)n3c(nc2c1)CCCCC3", "Potency": "inconclusive [inhibitor, partial curve, poor fit]"},
      {"smiles": "COc1cccc(/C=N\\NC(=O)C2=NNC(=O)C2C)c1O", "note": "(configuration not stated)", "Potency": "inconclusive [inhibitor, single point]"},
      {"smiles": "CCCCCn1c(CN2CCN(c3cccc(Cl)c3)CC2)nc2c1c(=O)n(C)c(=O)n2C", "Potency": "inconclusive [inhibitor, single point]"},
      {"smiles": "Cc1cc(S(=O)(=O)Nc2ccc(C(=O)NCC3(N4CCCCC4)CCCCC3)cc2)ccc1F", "Potency": "inconclusive [inhibitor, partial curve]"},
      {"smiles": "CN(c1nccc(=O)[nH]1)C1CCN(c2nc3ccccc3n2Cc2ccc(F)cc2)CC1", "Potency": "inconclusive [inhibitor, single point]"},
      {"smiles": "CCCCOc1ccc(C(=O)OC2CC(C)N(C)CC2C)cc1", "note": "(configuration not stated)", "Potency": "inconclusive [inhibitor, single point]"},
      {"smiles": "CN1CCc2c(n(CC(O)CN3C(=O)c4ccccc4S3(=O)=O)c3ccccc23)C1=O", "note": "(configuration not stated)", "Potency": "inconclusive [inhibitor, single point]"},
      {"smiles": "COc1ccc(NC(=O)CSc2nc(C)cc(C(F)(F)F)n2)cc1", "Potency": "inconclusive [inhibitor, single point]"},
      {"smiles": "CCc1cccc(OCCOC(=O)CNS(=O)(=O)c2ccc(NC(C)=O)cc2)c1", "activity change, negative = inhibition": "inactive: 37.9%"},
      {"smiles": "CCN(CC)CCn1c(N)c(S(=O)(=O)c2ccccc2)c2nc3ccccc3nc21", "Potency": "inconclusive [inhibitor, partial curve]"},
      {"smiles": "CCOC(=O)c1cnc(-n2nc(C)cc2C)nc1NCc1ccc2c(c1)OCO2", "Potency": "active: 4.65 µM"},
      {"smiles": "Cn1nc(C(=O)OCC(=O)Nc2ccc(Cl)cc2Cl)c2ccccc2c1=O", "activity change, negative = inhibition": "inactive: 12.4%"},
      {"smiles": "COc1ccc(CCN(Cc2nc3ccccc3c(=O)[nH]2)C(=O)c2ccco2)cc1", "Potency": "inconclusive [inhibitor, single point]"},
      {"smiles": "CCOc1ccccc1N(C)S(=O)(=O)c1ccc2[nH]cc(C(=O)N(CCOC)CCOC)c(=O)c2c1", "Potency": "inconclusive [inhibitor, single point]"},
      {"smiles": "COc1cc2c(cc1OC)C(c1ccc(C(F)(F)F)cc1)CC(=O)N2", "note": "(configuration not stated)", "Potency": "inconclusive [inhibitor, single point]"},
      {"smiles": "CCn1c(SCC(=O)Nc2ccc3c(c2)c2ccccc2n3CC)nnc1-c1cnccn1", "Potency": "inconclusive [inhibitor, single point]"},
      {"smiles": "Cc1ccc(C2(C)NC(=O)N(CC(=O)c3ccc(Cl)s3)C2=O)cc1", "note": "(configuration not stated)", "activity change, negative = inhibition": "inactive: -7.39%"},
      {"smiles": "Cc1cc(NC(=O)CCl)no1", "Potency": "active: 2.94 µM"},
      {"smiles": "COc1cc2c(C(=O)N3CCN(Cc4ccc5c(c4)OCO5)CC3)cn(C)c(=O)c2cc1OC", "Potency": "inconclusive [inhibitor, partial curve]"},
      {"smiles": "Cc1cc(C)c(S(=O)(=O)c2ccccc2C)c(OCCO)n1", "Potency": "inconclusive [inhibitor, single point]"},
      {"smiles": "COc1ccc(C(C(=O)NC2CCCCC2)N(CC2CCCO2)C(=O)CCCC(=O)Nc2ccccn2)cc1", "note": "(configuration not stated)", "Potency": "inconclusive [inhibitor, single point]"},
      {"smiles": "CC(OC(=O)c1ccco1)C(=O)NC1CCCC1", "note": "(configuration not stated)", "activity change, negative = inhibition": "inactive: 37.2%"},
      {"smiles": "Cc1cc2nc(C3CCN(Cc4nnnn4Cc4cccs4)CC3)[nH]c2cc1C", "Potency": "inconclusive [inhibitor, partial curve]"},
      {"smiles": "O=C(Nc1cnn(Cc2ccc(Cl)cc2Cl)c1)c1noc2c1CCCC2", "activity change, negative = inhibition": "inactive: -5.6%"},
      {"smiles": "CSc1cccc(NC(=O)C2CC(=O)N(Cc3ccccc3)C2)c1", "note": "(configuration not stated)", "Potency": "inconclusive [inhibitor, single point]"},
      {"smiles": "CCC(C)C(NC(=O)OC(C)(C)C)C(=O)NC(C(=O)NC(C)C(N)=O)C(C)C", "note": "(configuration not stated)", "activity change, negative = inhibition": "inactive: 7.5%"},
      {"smiles": "CNC(=O)COC(=O)c1ccccc1C(=O)c1ccc(Cl)c([N+](=O)[O-])c1", "Potency": "inconclusive [inhibitor, single point]"},
      {"smiles": "COC(=O)c1cc(OC)c(OC)cc1NC(=O)c1ccco1", "activity change, negative = inhibition": "inactive: -18.8%"},
      {"smiles": "COc1ccc(-c2ccc(SCC(=O)c3cccs3)nn2)cc1", "activity change, negative = inhibition": "inactive: 33.8%"},
      {"smiles": "COc1cc(C2NC(=O)NC(C)=C2C(=O)OCc2ccc(C)cc2)cc(OC)c1O", "note": "(configuration not stated)", "Potency": "inconclusive [inhibitor, single point]"},
      {"smiles": "Cc1c(Cc2ccccc2)c(=O)oc2c(CN(C)C)c(O)c(Cl)cc12", "activity change, negative = inhibition": "inactive: -26.8%"},
      {"smiles": "O=C(OCc1ccccc1)/C(=C(\\O)c1ccccc1Br)c1ccc(-c2ccccc2)cn1", "Potency": "inconclusive [inhibitor, partial curve]"},
      {"smiles": "COc1cc([N+](=O)[O-])ccc1NC(=S)Nc1cc(C(=O)OC(C)C)cc(C(=O)OC(C)C)c1", "Potency": "inconclusive [inhibitor, single point]"},
      {"smiles": "Cc1cccc(CN2CCN(CC(=O)NCCCN3CCN(c4ccc(F)cc4)CC3)C2=O)c1", "Potency": "inconclusive [inhibitor, single point]"},
      {"smiles": "CCOC(=O)/C=C1\\SCC(=O)N1Cc1nnc(-c2ccccc2Br)o1", "Potency": "inconclusive [inhibitor, partial curve, poor fit]"},
      {"smiles": "O=C(CNC(=O)c1cnccc1C(F)(F)F)c1cccc(Cl)c1", "Potency": "inconclusive [inhibitor, single point]"},
      {"smiles": "CCn1ncc(Br)c1C(=O)Nc1sc2c(c1C(N)=O)CCC2", "Potency": "inconclusive [inhibitor, partial curve, poor fit]"},
      {"smiles": "Cc1ccc(-n2c(C)cc(=O)cc2C)c(C)c1", "Potency": "inconclusive [inhibitor, single point]"},
      {"smiles": "CCOc1ccc(NC(=O)c2cccc(-n3cccc3)c2)cc1S(=O)(=O)N1CCOCC1", "Potency": "inconclusive [inhibitor, single point]"},
      {"smiles": "CCNc1nc(SCCOc2ccc(Cl)cc2Cl)nc(N(C)C)n1", "Potency": "inconclusive [inhibitor, single point]"},
      {"smiles": "Cc1sc2nc(C(C)C)nc(SCC(=O)N3c4ccccc4CC3C)c2c1C", "note": "(configuration not stated)", "Potency": "inconclusive [inhibitor, partial curve, poor fit]"},
      {"smiles": "COc1cc(NC(=S)NCCC(c2ccccc2)c2ccccc2)c(OC)cc1Cl", "Potency": "inconclusive [inhibitor, single point]"},
      {"smiles": "Cc1cc(C(=O)OCC(=O)Nc2ccccc2[N+](=O)[O-])c2ccccc2n1", "Potency": "inconclusive [inhibitor, partial curve, poor fit]"},
      {"smiles": "Cc1cccc(NC(=O)c2cccc(S(=O)(=O)N3CCc4ccccc4C3)c2)n1", "Potency": "inconclusive [inhibitor, single point]"},
      {"smiles": "O=C(O)c1ccc(/C=C/c2nc3ccccc3c(=O)n2-c2ccc(Br)cc2)cc1", "Potency": "inconclusive [inhibitor, full curve]"},
      {"smiles": "CN1C(=O)CC(C(=O)O)SC1=Nc1cc(Cl)cc(Cl)c1", "note": "(configuration not stated)", "activity change, negative = inhibition": "inactive: -5.4%"},
      {"smiles": "Cc1ccc(S(=O)(=O)Nc2c(NC3CCCCC3)c3ccccc3oc2=O)cc1", "activity change, negative = inhibition": "inactive: 22.1%"},
      {"smiles": "CCCN=C1NC(=O)C(CC(=O)NCCc2ccccc2)S1", "note": "(configuration not stated)", "Potency": "inconclusive [inhibitor, single point]"},
      {"smiles": "CCCCCC(=O)NC(=S)NNC(=O)c1ccc([N+](=O)[O-])cc1", "activity change, negative = inhibition": "inactive: 11.8%"},
      {"smiles": "COCCNC(=O)c1ccc(-n2c(SCc3ccncc3)nc3ccccc3c2=O)cc1", "Potency": "inconclusive [inhibitor, partial curve, poor fit]"},
      {"smiles": "O=C(NC1CCCCC1)C(c1cc2c(cc1[N+](=O)[O-])OCO2)N1CCCCC1", "note": "(configuration not stated)", "Potency": "inconclusive [inhibitor, single point]"}
    ]}
  ]
}
